# Test results: paper PMC11995724, “Antibiotic target discovery by integrated phenotypic and activity-based profiling of electrophilic fragments” (Cell chemical biology, 2025)
# Out of some 3,200 compounds screened, about 75 (2%) showed an effect of 50% or more. The list shows a part of the results.
# Tested on: T1, S. aureus MSSA476
# T1 construct: MSSA476
# Set-up: species or system S. aureus MSSA476 (TSB) or V. cholerae SAD30 (LB); 384-well bacterial growth screen at 25 uM, OD600 relative to DMSO control
# Conditions: relative growth, OD600, TSB; 25 µM; inhibitor
row,SMILES,% of control remaining [%]
1,"CC(C)(C)C1CCc2c(sc(NC(=O)CCl)c2C#N)C1 (stereo not shown) [5-E17, N-(6-tert-butyl-3-cyano-4,5,6,7-tetrahydro-1-benzothiophen-2-yl)-2-chloroacetamide]",61.2022
2,"Cc1cccc(C=C(C#N)C(=O)NC(C)c2ccccc2)c1 (stereo not shown) [8-F18, 2-cyano-3-(3-methylphenyl)-N-(1-phenylethyl)prop-2-enamide]",93.61
3,"Cc1ccc(NC(=O)C2(CNC(=O)C(C)Cl)CCCC2)cc1C (stereo not shown) [7-J13, 1-[(2-chloropropanamido)methyl]-N-(3,4-dimethylphenyl)cyclopentane-1-carboxamide]",77.865
4,"C=CC(=O)N1CCCC1c1nc(N(C)C)no1 (stereo not shown) [2-C21, 1-{2-[3-(dimethylamino)-1,2,4-oxadiazol-5-yl]pyrrolidin-1-yl}prop-2-en-1-one]",104.439
5,"C=CC(=O)N(CC)CC(=O)N1CC(C)(C)C1c1nccn1C (stereo not shown) [2-J16, N-{2-[3,3-dimethyl-2-(1-methyl-1H-imidazol-2-yl)azetidin-1-yl]-2-oxoethyl}-N-ethylprop-2-enamide]",140.296
6,"C=CC(=O)N1CCC(c2noc3cc(F)ccc23)CC1 [3-I07, 1-[4-(6-fluoro-1,2-benzoxazol-3-yl)piperidin-1-yl]prop-2-en-1-one]",95.4288
7,"CC(Cl)C(=O)NCc1cccc(Cn2cnc3ccccc32)c1 (stereo not shown) [6-O16, N-({3-[(1H-1,3-benzodiazol-1-yl)methyl]phenyl}methyl)-2-chloropropanamide]",100.39
8,"CC(Cl)C(=O)NCCC1(C)OCCO1 (stereo not shown) [7-E17, 2-chloro-N-[2-(2-methyl-1,3-dioxolan-2-yl)ethyl]propanamide]",108.634
9,"CC(Cl)C(=O)Nc1cc([N+](=O)[O-])ccc1Cl (stereo not shown) [6-I14, 2-chloro-N-(2-chloro-5-nitrophenyl)propanamide]",110.634
10,"COc1c(C)cnc(CN2CCC(N(C)C(=O)C(C)Cl)CC2)c1C (stereo not shown) [6-A04, 2-chloro-N-{1-[(4-methoxy-3,5-dimethylpyridin-2-yl)methyl]piperidin-4-yl}-N-methylpropanamide]",103.122
11,"N#CC(=Cc1ccccc1)C(=O)Nc1ccccc1F [8-C13, 2-cyano-N-(2-fluorophenyl)-3-phenylprop-2-enamide]",103.568
12,"O=C(CCl)Nc1ccc(OC(F)F)c(Cl)c1 [4-F14, 2-chloro-N-[3-chloro-4-(difluoromethoxy)phenyl]acetamide]",118.533
13,"CC(Cl)C(=O)NC(=O)Nc1ccc2c(c1)OCCO2 (stereo not shown) [5-D08, 3-(2-chloropropanoyl)-1-(2,3-dihydro-1,4-benzodioxin-6-yl)urea]",103.097
14,"C=CC(=O)NCCC(=O)N1CCCN(C(=O)c2ccccc2F)CC1 [2-D20, N-{3-[4-(2-fluorobenzoyl)-1,4-diazepan-1-yl]-3-oxopropyl}prop-2-enamide]",118.364
15,"CC1CC(NC(=O)CCl)C(=O)N1c1cnn(C)c1 (stereo not shown) [5-O08, 2-chloro-N-[5-methyl-1-(1-methyl-1H-pyrazol-4-yl)-2-oxopyrrolidin-3-yl]acetamide]",114.39
16,"COc1ccc(OC)c(NC(=O)CCl)c1 [6-O04, 2-chloro-N-(2,5-dimethoxyphenyl)acetamide]",99.7073
17,"Cc1ccc(C(NC(=O)CCl)c2cccs2)cc1 (stereo not shown) [4-H16, 2-chloro-N-[(4-methylphenyl)(thiophen-2-yl)methyl]acetamide]",122.725
18,"CC(Cl)C(=O)N1CCCC(n2ncc(N(C)C(C)C)cc2=O)C1 (stereo not shown) [6-H09, 2-[1-(2-chloropropanoyl)piperidin-3-yl]-5-[methyl(propan-2-yl)amino]-2,3-dihydropyridazin-3-one]",93.9024
19,"C=CC(=O)Nc1ccc(S(=O)(=O)N(C)C)c(C)c1 [2-E06, N-[4-(dimethylsulfamoyl)-3-methylphenyl]prop-2-enamide]",97.8242
20,"Cc1cc(C(=O)CCl)c(C)s1 [10-K16, 2-chloro-1-(2,5-dimethylthiophen-3-yl)ethan-1-one]",117.813
21,"C=CC(=O)N[C@H]1C[C@H](C)S(=O)(=O)c2sccc21 [3-C14, N-[(2S,4S)-2-methyl-1,1-dioxo-2H,3H,4H-1lambda6-thieno[2,3-b]thiopyran-4-yl]prop-2-enamide]",113.539
22,"O=C(CCl)NCCN1C(=O)SC(=Cc2ccccc2F)C1=O [4-A10, 2-chloro-N-(2-{5-[(2-fluorophenyl)methylidene]-2,4-dioxo-1,3-thiazolidin-3-yl}ethyl)acetamide]",109.004

row,SMILES,% of control remaining [%]
1,"O=C(CCl)N1CCN(S(=O)(=O)c2cccc([N+](=O)[O-])c2)CC1 [4-C19, 2-chloro-1-[4-(3-nitrobenzenesulfonyl)piperazin-1-yl]ethan-1-one]",120.819
2,"COc1ccc2c(c1)OCCN(C(=O)C(C)Cl)C2 (stereo not shown) [7-E04, 2-chloro-1-(8-methoxy-2,3,4,5-tetrahydro-1,4-benzoxazepin-4-yl)propan-1-one]",100.157
3,"N#CC(C(=O)CCl)=C1Nc2cc(Cl)ccc2S1 [10-O08, 4-chloro-2-(5-chloro-2,3-dihydro-1,3-benzothiazol-2-ylidene)-3-oxobutanenitrile]",100
4,"C=CC(=O)NC1CCCN(c2cc(N3CCOCC3)ncn2)C1 (stereo not shown) [1-A08, N-{1-[6-(morpholin-4-yl)pyrimidin-4-yl]piperidin-3-yl}prop-2-enamide]",95.6484
5,"CC(Cl)C(=O)NCC(c1ccc(Cl)cc1)n1cccn1 (stereo not shown) [7-J05, 2-chloro-N-[2-(4-chlorophenyl)-2-(1H-pyrazol-1-yl)ethyl]propanamide]",93.2496
6,"C=CC(=O)NCc1c(Cl)c(C(F)(F)F)nn1C [2-J07, N-{[4-chloro-1-methyl-3-(trifluoromethyl)-1H-pyrazol-5-yl]methyl}prop-2-enamide]",121.149
7,"CC(Cl)C(=O)NC1CCCN(S(=O)(=O)N2CCOCC2)C1 (stereo not shown) [6-L03, 2-chloro-N-[1-(morpholine-4-sulfonyl)piperidin-3-yl]propanamide]",89.122
8,"C=CC(=O)N1CCOC(c2noc(C(C)C)n2)C1 (stereo not shown) [1-O05, 1-{2-[5-(propan-2-yl)-1,2,4-oxadiazol-3-yl]morpholin-4-yl}prop-2-en-1-one]",83.6923
9,"C=CC(=O)NC1CCN(c2ccccc2S(=O)(=O)CC)CC1 [2-M03, N-{1-[2-(ethanesulfonyl)phenyl]piperidin-4-yl}prop-2-enamide]",102.35
10,"C=CC(=O)N(C)CC(=O)NC(C)(C)c1nc(C)cs1 [3-E14, N-methyl-N-({[2-(4-methyl-1,3-thiazol-2-yl)propan-2-yl]carbamoyl}methyl)prop-2-enamide]",93.6874
11,"Cc1cccc(C)c1NC(=O)C(C#N)=Cc1ccc(C(=O)O)cc1 [9-G17, 4-{2-cyano-2-[(2,6-dimethylphenyl)carbamoyl]eth-1-en-1-yl}benzoic acid]",122.547
12,"C=CC(=O)NCc1nc2ccccc2s1 [1-I12, N-[(1,3-benzothiazol-2-yl)methyl]prop-2-enamide]",122.374
13,"CCCCNC(=O)C(C#N)=Cc1cc(C)c(O)c(C)c1 [9-E09, N-butyl-2-cyano-3-(4-hydroxy-3,5-dimethylphenyl)prop-2-enamide]",106.966
14,"O=C(CCl)c1ccc(F)c(F)c1 [10-L13, 2-chloro-1-(3,4-difluorophenyl)ethan-1-one]",110.313
15,"C=CC(=O)N1CCC(n2nc(C)nc2O)CC1 [3-P21, 1-[4-(5-hydroxy-3-methyl-1H-1,2,4-triazol-1-yl)piperidin-1-yl]prop-2-en-1-one]",126.077
16,"Cc1cccc(C)c1NC(=O)CNC(=O)C(C)Cl (stereo not shown) [6-F10, 2-chloro-N-{[(2,6-dimethylphenyl)carbamoyl]methyl}propanamide]",107.22
17,"O=C(CCl)NC(c1ccccc1)c1cccs1 (stereo not shown) [4-J14, 2-chloro-N-[phenyl(thiophen-2-yl)methyl]acetamide]",106.717
18,"CC(Cl)C(=O)NC1CS(=O)(=O)Cc2ccccc21 (stereo not shown) [6-L20, 2-chloro-N-(2,2-dioxo-3,4-dihydro-1H-2lambda6-benzothiopyran-4-yl)propanamide]",96.9756
19,"O=C(CCl)Nc1cc(C2CC2)nn1-c1ccccc1 [4-I15, 2-chloro-N-(3-cyclopropyl-1-phenyl-1H-pyrazol-5-yl)acetamide]",91.8533
20,"C=CC(=O)NCc1ccc2oc(=O)n(C)c2c1 [2-L15, N-[(3-methyl-2-oxo-2,3-dihydro-1,3-benzoxazol-5-yl)methyl]prop-2-enamide]",113.838
21,"CC(Cl)C(=O)N1CCCc2ccc(N(C)C)cc2C1 (stereo not shown) [7-C15, 2-chloro-1-[8-(dimethylamino)-2,3,4,5-tetrahydro-1H-2-benzazepin-2-yl]propan-1-one]",97.3312
